# The other results are listed elsewhere or left out.
# B1: ConA (Canavalia ensiformis), P02866 (protein)
# chain: MAISKKSSLFLPIFTFITMFLMVVNKVSSSTHETNALHFMFNQFSKDQKDLILQGDATTGTDGNLELTRVSSNGSPQGSSVGRALFYAPVHIWESSAVVASFEATFTFLIKSPDSHPADGIAFFISNIDSSIPSGSTGRLLGLFPDANVIRNSTTIDFNAAYNADTIVAVELDTYPNTDIGDPSYPHIGIDIKSVRSKKTAKWNMQNGKVGTAHIIYNSVDKRLSAVVSYPNADSATVSYDVDLDNVLPEWVRVGLSASTGLYKETNTILSWSFTSKLKSNEIPDIATVV
# What was measured:
# Test in all cases: glycan array binding signal (z-score within array); higher = stronger binding
# Settings in all cases: glycan notation: IUPAC condensed, linker removed
# [1] = molecular target: Gal(b1-4)GlcNAc(b1-3)Gal(b1-3)GlcNAc
# Method in brief: (§1)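 The Consortium for Functional Glycomics database supplied 3228 glycan arrays, of which those lacking an available protein sequence were dropped. The binding signal, a within-array Z-score, was averaged across arrays of the same protein sequence and across linkers. Negative scores can be read as non-binding.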
# [2] = molecular target: Gal(b1-4)GlcNAc(b1-3)Gal(b1-4)Glc
# Method in brief: as §1
# [3] = molecular target: Gal(b1-4)GlcNAc(b1-3)Gal(b1-4)GlcNAc
# Method in brief: as §1
# [4] = molecular target: Gal(b1-4)GlcNAc(b1-3)Gal(b1-4)GlcNAc(b1-3)Gal(b1-4)GlcNAc
# Method in brief: as §1
# [5] = molecular target: Gal(b1-4)GlcNAc(b1-3)Gal(b1-4)[Fuc(a1-3)GlcNAc(b1-6)]Gal(b1-4)Glc
# Method in brief: as §1
# [6] = molecular target: Gal(b1-4)GlcNAc(b1-3)Gal(b1-4)[Fuc(a1-3)]GlcNAc(b1-3)Gal(b1-4)[Fuc(a1-3)]GlcNAc
# Method in brief: as §1
# [7] = molecular target: Gal(b1-4)GlcNAc(b1-3)GalNAc
# Method in brief: as §1
# [8] = molecular target: Gal(b1-4)GlcNAc(b1-3)[Gal(b1-4)GlcNAc(b1-6)]Gal(b1-4)GlcNAc
# Method in brief: as §1
# [9] = molecular target: Gal(b1-4)GlcNAc(b1-3)[Gal(b1-4)GlcNAc(b1-6)]GalNAc
# Method in brief: as §1
# [10] = molecular target: Gal(b1-4)GlcNAc(b1-3)[GlcNAc(b1-6)]Gal(b1-4)GlcNAc
# Method in brief: as §1
# [11] = molecular target: Gal(b1-4)GlcNAc(b1-6)Gal(b1-4)GlcNAc
# Method in brief: as §1
# [12] = molecular target: Gal(b1-4)GlcNAc(b1-6)Gal(b1-4)GlcNAc(b1-6)GalNAc
# Method in brief: as §1
# [13] = molecular target: Gal(b1-4)GlcNAc(b1-6)GalNAc
# Method in brief: as §1
# [14] = molecular target: Gal(b1-4)GlcNAc(b1-6)[Gal(b1-3)]GalNAc
# Method in brief: as §1
# [15] = molecular target: Gal(b1-6)Gal
# Method in brief: as §1
# [16] = molecular target: Gal3S(b1-3)GalNAc
# Method in brief: as §1
# [17] = molecular target: Gal3S(b1-3)GlcNAc
# Method in brief: as §1
# [18] = molecular target: Gal3S(b1-3)[Fuc(a1-4)]GlcNAc
# Method in brief: as §1
# [19] = molecular target: Gal3S(b1-4)Glc
# Method in brief: as §1
# [20] = molecular target: Gal3S(b1-4)Glc6S
# Method in brief: as §1
# [21] = molecular target: Gal3S(b1-4)GlcNAc
# Method in brief: as §1
# [22] = molecular target: Gal3S(b1-4)GlcNAc6S
# Method in brief: as §1
# [23] = molecular target: Gal3S(b1-4)[Fuc(a1-3)]Glc
# Method in brief: as §1
# [24] = molecular target: Gal3S(b1-4)[Fuc(a1-3)]Glc6S
# Method in brief: as §1
# [25] = molecular target: Gal3S4S(b1-4)GlcNAc
# Method in brief: as §1
# [26] = molecular target: Gal3S6S(b1-4)GlcNAc
# Method in brief: as §1
# [27] = molecular target: Gal3S6S(b1-4)GlcNAc6S
# Method in brief: as §1
# [28] = molecular target: Gal4S(b1-4)GlcNAc
# Method in brief: as §1
# [29] = molecular target: Gal4S6S(b1-4)GlcNAc
# Method in brief: as §1
# [30] = molecular target: Gal6S(b1-3)GlcNAc
# Method in brief: as §1
# [31] = molecular target: Gal6S(b1-3)GlcNAc6S
# Method in brief: as §1
# [32] = molecular target: Gal6S(b1-4)Glc
# Method in brief: as §1
# [33] = molecular target: Gal6S(b1-4)Glc6S
# Method in brief: as §1
# [34] = molecular target: Gal6S(b1-4)GlcNAc
# Method in brief: as §1
# [35] = molecular target: Gal6S(b1-4)GlcNAc6S
# Method in brief: as §1
# [36] = molecular target: GalNAc(a1-3)Gal
# Method in brief: as §1
# [37] = molecular target: GalNAc(a1-3)GalNAc
# Method in brief: as §1
binder,measurement,setting,value
B1,glycan array binding signal (z-score),[1],-0.257
same,glycan array binding signal (z-score),[2],-0.274
same,glycan array binding signal (z-score),[3],-0.261
same,glycan array binding signal (z-score),[4],-0.262
same,glycan array binding signal (z-score),[5],-0.01
same,glycan array binding signal (z-score),[6],-0.121
same,glycan array binding signal (z-score),[7],-0.228
same,glycan array binding signal (z-score),[8],-0.208
same,glycan array binding signal (z-score),[9],-0.214
same,glycan array binding signal (z-score),[10],-0.234
same,glycan array binding signal (z-score),[11],-0.206
same,glycan array binding signal (z-score),[12],-0.311
same,glycan array binding signal (z-score),[13],-0.218
same,glycan array binding signal (z-score),[14],-0.234
same,glycan array binding signal (z-score),[15],-0.254
same,glycan array binding signal (z-score),[16],-0.284
same,glycan array binding signal (z-score),[17],-0.227
same,glycan array binding signal (z-score),[18],-0.301
same,glycan array binding signal (z-score),[19],-0.171
same,glycan array binding signal (z-score),[20],0.35
same,glycan array binding signal (z-score),[21],-0.294
same,glycan array binding signal (z-score),[22],-0.258
same,glycan array binding signal (z-score),[23],-0.21
same,glycan array binding signal (z-score),[24],-0.137
same,glycan array binding signal (z-score),[25],-0.275
same,glycan array binding signal (z-score),[26],-0.287
same,glycan array binding signal (z-score),[27],-0.193
same,glycan array binding signal (z-score),[28],-0.272
same,glycan array binding signal (z-score),[29],-0.282
same,glycan array binding signal (z-score),[30],-0.152
same,glycan array binding signal (z-score),[31],-0.273
same,glycan array binding signal (z-score),[32],-0.287
same,glycan array binding signal (z-score),[33],-0.223
same,glycan array binding signal (z-score),[34],-0.263
same,glycan array binding signal (z-score),[35],-0.21
same,glycan array binding signal (z-score),[36],-0.275
same,glycan array binding signal (z-score),[37],-0.271

# From the supplement of paper PMC8728848
